Experimental data from PubChem BioAssay (NCI).
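Where inhibition never reached the appropriate level, the endpoint shown equals the highest concentration tested. Otherwise, values were interpolated linearly from a five-concentration, 48-hour dose response in 96-well plates. The concentration for 50% growth inhibition is given as GI50. TGI is the concentration that stops growth completely.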

These molecules were tested on NCI-H322M lung (assay: growth of human tumour cells (NCI), 48 h).

Row | Compound | TGI | GI50
1 | COc1ccc(C2SCC(=O)N2c2ccc(-n3c(-c4ccccc4)nc4ccccc4c3=O)cc2)cc1OC (stereo not drawn) | > 100 µM | 
2 | COc1ccc(C2C3C(=O)C=CC(=O)C3[C@@H]2C)cc1OC (stereo partly drawn) | > 100 µM | 
3 | CC(C)[C@@]12C[C@@H](OC(=O)[C@H]3CO3)[C@@](C)(O1)[C@@H]1CC[C@@H](C)[C@H]1[C@@H]2OC(=O)/C=C/c1ccccc1 | 28.5 µM | 13.8 µM
4 | Cc1ccc(S(=O)(=O)NN=C2CCCCCCCCCCC2)cc1 | > 100 µM | 
5 | COc1ccccc1-n1c(-c2cc(O)ccc2C)cn2c3c(=O)[nH]c(=O)n(C)c3nc12 | > 100 µM | 4.82 µM
6 | O=C(CO)CC(=O)C(=O)Nc1nc([N+](=O)[O-])cs1 | > 100 µM | 
